From a collection of fitness landscapes (doi:10.1126/science.1257360) come the findings set out here.

Some of the results follow.

B1: PhoQ; a variant is named by its letters at X, in order, P23837 (parent)
chain: MKKLLRLFFPLSLRVRFLLATAAVVLVLSLAYGMVALIGYSVSFDKTTFRLLRGESNLFYTLAKWENNKLHVELPENIDKQSPTMTLIYDENGQLLWAQRDVPWLMKMIQPDWLKSNGFHEIEADVNDTSLLLSGDHSIQQQLQEVREDDDDAEMTHSVAVNVYPATSRMPKLTIVVVDTIPVELKSSYMVWSWFIYVLSANLLLVIPLLWVAAWWSLRPIEALAKEVRELEEHNRELLNPATTRELTSLVRNLNRLLKSERERYDKYRTTLTDLTHSLKTPLXXLQXXLRSLRSEKMSVSDAEPVMLEQISRISQQIGYYLHRASMRGGTLLSRELHPVAPLLDNLTSALNKVYQRKGVNISLDISPEISFVGEQNDFVEVMGNVLDNACKYCLEFVEISARQTDEHLYIVVEDDGPGIPLSKREVIFDRGQRVDTLRPGQGVGLAVAREITEQYEGKIVAGESMLGGARMEVIFGRQHSAPKDE

The experiment covers variants of B1. Briefly: enrichment ratio after two sorts for PhoP signalling (ratio (wild type AVST 3.29)); higher = more functional. The settings on record: with PhoP (E. coli).
HKIG: the enrichment ratio was no more than 0.25. The result for ERKL reads no more than 0.25; that for QNLF, no more than 0.25; that for LCTY, no more than 0.25.

Take EQYR: the enrichment ratio was no more than 0.25. The result for HLKP reads no more than 0.25; that for VHGF, no more than 0.25; that for FRIT, no more than 0.25. Turning to TMFR, the enrichment ratio is no more than 0.25. The result for PVPH reads no more than 0.25; that for WERR, no more than 0.25. The result for IADF reads no more than 0.25. Next, FAKN: no more than 0.25; AWYA: no more than 0.25. For the variant ASNV, the enrichment ratio was determined as 3.04.

QDNN: the enrichment ratio was no more than 0.25. Next, IKVV: no more than 0.25; WVFE: no more than 0.25; LCLL: 0.451. Next, KITI: no more than 0.25; YPYK: no more than 0.25; GSHV: no more than 0.25. In the case of IVMC, the enrichment ratio was no more than 0.25. Next, AQQV: no more than 0.25; NCHG: no more than 0.25; YKTH: no more than 0.25. Next, SWPI: no more than 0.25. The result for EIII reads no more than 0.25; that for RVMF, no more than 0.25.

TDTF: the enrichment ratio is no more than 0.25. Next, NILK: no more than 0.25; RECH: no more than 0.25; WMVY: no more than 0.25. Next, MCGR: no more than 0.25.

As to ATCC, the enrichment ratio stood at 1.99. Next, WKPH: no more than 0.25. With WNGT, the enrichment ratio was no more than 0.25. The result for IRQS reads no more than 0.25; that for FKTG, no more than 0.25. Next, ISHD: no more than 0.25; WNKS: no more than 0.25; RCDQ: no more than 0.25. Next, AMCD: no more than 0.25; IMQL: no more than 0.25.

In the case of VSKI, the enrichment ratio is no more than 0.25. The result for ICAM reads 17.4; that for KHCM, no more than 0.25. Next, QPRH: no more than 0.25. Next, YTIH: no more than 0.25. Turning to TNAE, the enrichment ratio is no more than 0.25. The result for IWKV reads no more than 0.25. Next, LICC: no more than 0.25; NGGK: no more than 0.25; THSS: 8.94. Take PNFP: the enrichment ratio was no more than 0.25. The result for FFKQ reads no more than 0.25. For the variant NEGC, the enrichment ratio is no more than 0.25.

Consider YNCE, for which the enrichment ratio was no more than 0.25.

With VMQW, the enrichment ratio was no more than 0.25.

Regarding WMIG, the enrichment ratio was no more than 0.25.

For the variant IRYG, the enrichment ratio is no more than 0.25. In the case of RKTN, the enrichment ratio was no more than 0.25. The result for IRQI reads no more than 0.25; that for FCQI, no more than 0.25. On to TICR, for which the enrichment ratio stood at 0.409.

For the variant HFSM, the enrichment ratio was no more than 0.25. The result for FWVW reads no more than 0.25. The result for WKSM reads no more than 0.25; that for TYQP, no more than 0.25; that for YTIY, no more than 0.25. On to VFLH, for which the enrichment ratio is no more than 0.25. Next, HDFR: no more than 0.25.

Turning to NFFY, the enrichment ratio is no more than 0.25. The result for YKEA reads no more than 0.25; that for VAHD, no more than 0.25.

As to MGTQ, the enrichment ratio is no more than 0.25. With VHQI, the enrichment ratio was no more than 0.25. Next, ESML: no more than 0.25. Next, PGIN: no more than 0.25; MMLR: no more than 0.25; AYCF: no more than 0.25. Next, FYNG: no more than 0.25; EDPC: no more than 0.25.

In the case of ILVY, the enrichment ratio was no more than 0.25. For the variant KLEE, the enrichment ratio is no more than 0.25. On to RHIS, for which the enrichment ratio is no more than 0.25. Next, QQLR: no more than 0.25. The result for QPCA reads no more than 0.25; that for TLVR, no more than 0.25.

Consider WEFE, for which the enrichment ratio is no more than 0.25. With RMPD, the enrichment ratio was no more than 0.25. Regarding SMYR, the enrichment ratio is no more than 0.25.

Turning to WKIH, the enrichment ratio is no more than 0.25. Regarding DTTP, the enrichment ratio was no more than 0.25. Next, GNVY: 2.93; PMQR: no more than 0.25; PATL: no more than 0.25. For the variant AMAV, the enrichment ratio is 5.5. Next, HQHD: no more than 0.25; RQFP: no more than 0.25; QYHP: no more than 0.25. The result for HWFH reads no more than 0.25. The result for MTGH reads 2.68; that for RGLY, no more than 0.25. Regarding AGGM, the enrichment ratio is no more than 0.25. As for TNHR, the enrichment ratio was no more than 0.25. Take VAHW: the enrichment ratio is no more than 0.25. Next, HQHP: no more than 0.25; DCQK: no more than 0.25. The result for YYRR reads no more than 0.25. Regarding SSFC, the enrichment ratio came to 0.48. Next, RSGL: no more than 0.25; ANCR: 11. Regarding MRNS, the enrichment ratio is no more than 0.25. The result for IQIW reads no more than 0.25; that for RSIF, no more than 0.25; that for NSGF, no more than 0.25.

Take GGAP: the enrichment ratio was no more than 0.25. Next, KQRR: no more than 0.25. Next, NRTL: no more than 0.25; DRFT: no more than 0.25; HVLV: no more than 0.25. The result for FGTF reads no more than 0.25; that for WQRS, no more than 0.25; that for LAQQ, no more than 0.25. For the variant NAKI, the enrichment ratio is no more than 0.25. Next, KIVA: no more than 0.25; IQAI: no more than 0.25; HIKS: no more than 0.25. Next, ESIQ: no more than 0.25; IFAP: no more than 0.25; DRTH: no more than 0.25. The result for GHNM reads no more than 0.25; that for HDCW, no more than 0.25. Regarding AGIH, the enrichment ratio was determined as 16.3. Next, YYLV: no more than 0.25; RDRY: no more than 0.25; VMQE: no more than 0.25. Next, DGHD: no more than 0.25. The result for NRIQ reads no more than 0.25; that for VSGT, no more than 0.25.

For the variant HLLQ, the enrichment ratio was no more than 0.25. The result for DKQS reads no more than 0.25; that for WTHD, no more than 0.25; that for FILD, no more than 0.25. The result for VQQN reads no more than 0.25; that for ACDR, no more than 0.25. The result for MWYP reads no more than 0.25. On to HPDF, for which the enrichment ratio is no more than 0.25.

Take GHNY: the enrichment ratio is no more than 0.25.

On to SEWD, for which the enrichment ratio is no more than 0.25.

Consider SFEF, for which the enrichment ratio is no more than 0.25.

Turning to YNTP, the enrichment ratio is no more than 0.25.
